Experimental data reported in PubChem BioAssay (NCI).
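Test compounds were applied to cells in 96-well plates for 48 hours at 5 doses. GI50: concentration for 50% inhibition of growth. TGI marks complete inhibition of growth.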

System: NCI-H322M lung
Assay: inhibition of tumour cell growth, NCI panel, 48 h

Q: `O=C(NNc1nc2cc(F)c(F)cc2n2cccc12)c1ccncn1` was tested. Which GI50 did it give?
A: 0.239 µM

Q: What about the TGI of the same compound?
A: 6.43 µM

Q: For `CCNC(=O)N1CCc2cc(OC)c(OCCc3ccc(OC)c(N)c3)cc2C1c1ccc(C)cc1C` (configuration not stated), which GI50 is on record?
A: 0.626 µM

Q: And the TGI?
A: > 100 µM

Q: `COc1cc2c3c(n(CCCNC4CCC4)c(=O)c2cc1OC)-c1cc2c(cc1C3=O)OCO2` was tested. Which GI50 did it give?
A: 1.62 µM

Q: What about the TGI of the same compound?
A: 4.14 µM

Q: With `O=C1[C@@H]2Cc3c([nH]c4ccccc34)[C@H](c3c(Cl)cccc3Cl)N2C(=O)CN1C1CCN(Cc2ccccc2)CC1` as the compound, how does the GI50 read?
A: 4.49 µM

Q: And the TGI?
A: > 14.3 µM

Q: `CCNCc1c(-c2cccc(OC(F)(F)F)c2)[nH]c2ccc(N3CCCC3)cc2c1=O` was tested. Which GI50 did it give?
A: 4.17 µM

Q: What about the TGI of the same compound?
A: 52.9 µM

Q: Which results are given for `O=C(Nc1ccc(Br)cc1)Nc1nc2ccc([N+](=O)[O-])cc2s1`?
A: GI50: 1.92 µM; TGI: 5.91 µM
